PubChem BioAssay AID504332 (National Center for Advancing Translational Sciences (NCATS), 2011)
In all, about 350,000 compounds went through this assay and about 31,000 (8.9%) were called active. The shares of active, inactive and inconclusive entries below differ from those in the screen. Calls follow the shape of the dose curve; as a rule, active = well fitted inhibition curve with a large enough effect; inconclusive = small, poorly fitted or top-dose-only effect; inactive = no such curve, though single readings can be large or run the other way. Potencies of inconclusive entries are doubtful fits and often do not repeat.

The compounds below were run against Histone-lysine N-methyltransferase EHMT2 (Homo sapiens) (UniProt Q96KQ7) (assay: qHTS Assay for Inhibitors of Histone Lysine Methyltransferase G9a). Settings: G9a H3K9 monomethylation, AlphaScreen, 2 h; activity, negative = inhibition: at 59 µM (top of the series) unless noted.
Outline: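 Methyltransferase reactions run at room temperature for 2 h (20 nM enzyme, 500 nM biotin-H3K9 peptide, 20 uM SAM) after a 15 min compound preincubation; product detected by AlphaScreen beads and anti-H3K9me1 antibody.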
% is scaled to controls: 0 for no effect and ±100 for the full control effect; potency is read from the fitted curve at half-maximal effect; tags tell the direction and shape of the fitted curve.
Also: nearly all actives have a fitted effect of over 75% in size.

Chain of UniProt Q96KQ7 (Q96KQ7 whole entry, looked up): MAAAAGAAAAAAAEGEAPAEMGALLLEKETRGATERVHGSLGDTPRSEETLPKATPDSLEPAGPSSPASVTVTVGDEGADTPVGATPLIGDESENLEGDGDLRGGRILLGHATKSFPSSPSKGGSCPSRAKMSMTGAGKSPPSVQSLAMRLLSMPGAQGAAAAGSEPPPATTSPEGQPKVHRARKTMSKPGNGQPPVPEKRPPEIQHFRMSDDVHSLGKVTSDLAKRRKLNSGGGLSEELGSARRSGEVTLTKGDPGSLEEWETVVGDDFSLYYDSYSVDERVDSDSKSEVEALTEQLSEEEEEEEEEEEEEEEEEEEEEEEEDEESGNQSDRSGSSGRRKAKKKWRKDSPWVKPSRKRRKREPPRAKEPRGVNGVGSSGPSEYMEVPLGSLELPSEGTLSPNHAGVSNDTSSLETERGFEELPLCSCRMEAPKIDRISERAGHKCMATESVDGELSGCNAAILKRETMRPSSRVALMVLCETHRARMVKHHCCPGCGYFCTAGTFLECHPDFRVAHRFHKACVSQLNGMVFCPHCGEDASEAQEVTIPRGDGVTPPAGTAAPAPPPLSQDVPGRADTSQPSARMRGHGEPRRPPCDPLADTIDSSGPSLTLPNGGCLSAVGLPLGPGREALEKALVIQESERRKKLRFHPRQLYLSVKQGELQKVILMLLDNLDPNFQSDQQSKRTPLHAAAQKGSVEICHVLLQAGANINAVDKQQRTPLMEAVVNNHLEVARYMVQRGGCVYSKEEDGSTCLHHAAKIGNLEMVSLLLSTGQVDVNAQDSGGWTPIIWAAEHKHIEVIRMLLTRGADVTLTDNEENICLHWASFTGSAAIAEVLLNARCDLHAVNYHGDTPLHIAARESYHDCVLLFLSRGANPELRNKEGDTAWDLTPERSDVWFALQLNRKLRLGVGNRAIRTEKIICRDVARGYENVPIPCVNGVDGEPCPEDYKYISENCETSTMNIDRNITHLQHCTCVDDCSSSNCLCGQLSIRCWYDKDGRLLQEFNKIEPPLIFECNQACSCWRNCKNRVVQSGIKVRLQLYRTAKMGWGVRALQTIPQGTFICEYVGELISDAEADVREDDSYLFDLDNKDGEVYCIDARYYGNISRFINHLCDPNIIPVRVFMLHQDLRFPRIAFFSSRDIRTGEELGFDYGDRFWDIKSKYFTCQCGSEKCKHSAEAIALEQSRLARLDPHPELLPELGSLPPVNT

Row | SMILES | Potency | activity, negative = inhibition
1 | Cc1ccc(NC(=O)CSc2nnc(N)s2)c(C)c1 | inactive | 
2 | COc1ccc2c(c1)C(NC(C)=O)C(=O)N2CCc1ccccc1 (stereo unspecified) | inactive | 
3 | CCc1ccc(NCc2cc3cc4c(cc3n(CC(=O)Nc3ccc(F)cc3)c2=O)OCCO4)cc1 | inconclusive: 4.47 µM [inhibitor, full curve, poor fit] | 
4 | CSc1ncccc1C(=O)OCn1nnc2ccccc2c1=O | inconclusive: 5.01 µM [inhibitor, partial curve, poor fit] | 
5 | Cc1ccc(S(=O)(=O)n2c3ccc(F)cc3c3nc(C)sc32)cc1 | inconclusive: 39.8 µM [inhibitor, single point] | 
6 | O=C(CN1C(=O)C(=O)N(C2CCCC2)C1=O)Nc1ccc(N2CCOCC2)cc1 | inconclusive: 20 µM [inhibitor, partial curve, poor fit] | 
7 | CCN(CC)S(=O)(=O)c1cccc(-c2cn3cc(C)ccc3n2)c1 | inconclusive: 89.1 µM [inhibitor, single point] | 
8 | O=S(=O)(N/N=C\c1cccn1-c1ccccc1)c1ccc2ccccc2c1 | active: 31.6 µM | 
9 | O=C(O)C1C2CCC(O2)C1C(=O)Nc1ccc(O)cc1 (stereo unspecified) | inconclusive: 3.98 µM [inhibitor, full curve, poor fit] | 
10 | Cc1cc2ncn(C3CC(=O)N(Cc4ccccc4)C3=O)c2cc1C (stereo unspecified) | inconclusive: 28.2 µM [inhibitor, single point] | 
11 | Cc1cc(C(=O)CSc2nnc(Cc3ccccc3)o2)c(C)n1Cc1ccc2c(c1)OCO2 | inconclusive: 12.6 µM [inhibitor, partial curve, poor fit] | 
12 | O=C(Nc1ccccc1)C1=C(N2CCOCC2)/C(=C/c2cccnc2)CC1 | inconclusive: 3.16 µM [inhibitor, single point] | 
13 | CNC(=O)c1ccc(NC(=O)CCNC(=O)Nc2ccccc2)cc1 | active: 44.7 µM | 
14 | COCCN(C(=O)CSc1nc2ccccc2c(=O)n1CCOC)c1c(N)n(Cc2ccccc2)c(=O)[nH]c1=O | inconclusive: 44.7 µM [inhibitor, partial curve] | 
15 | S=c1sc2c(N3CCOCC3)ncnc2n1-c1ccccc1 | inconclusive: 100 µM [inhibitor, single point] | 
16 | CCOC(=O)/C(=C\c1ccc(OC)c(OC)c1)C(=O)c1cccnc1 | inconclusive: 79.4 µM [inhibitor, single point] | 
17 | Cn1ccnc1SCC(=O)Nc1cc(Cl)ccc1Cl | inconclusive: 31.6 µM [inhibitor, partial curve, poor fit] | 
18 | O=c1[nH]c(CN2CCCCC2)nc2ccccc12 | inconclusive: 39.8 µM [inhibitor, partial curve, poor fit] | 
19 | COc1ccc(C(=O)NNC2=NC(C)(C)Cc3ccccc32)cc1 | inactive | 
20 | COCCCN(C(=O)Nc1ccc(C)c(C)c1)C(C)c1ccccn1 (stereo unspecified) | inconclusive: 4.47 µM [inhibitor, full curve, poor fit] | 
21 | Fc1ccc(CNc2nc(-c3ccccc3)cc(C(F)(F)F)n2)cc1 | inactive | 
22 | Cc1cccc(-c2nc(CS(=O)CC(=O)N3CCN(C)CC3)c(C)o2)c1 (stereo unspecified) | inconclusive: 100 µM [inhibitor, single point] | 
23 | CC1CCC(C(C)C)C(OC(=O)Cn2c(-c3ccc(F)cc3)[n+](C)c3ccccc32)C1 (stereo unspecified) | active: 25.1 µM | 
24 | Cn1c(=O)c2c(nc(SCC(=O)Nc3ccc(F)cc3)n2Cc2ccccc2)n(C)c1=O | inactive | 

Row | SMILES | Potency | activity, negative = inhibition
25 | CCN(CC)c1ccc(NC(=O)CSc2ccsc2[N+](=O)[O-])c(C)c1 | inconclusive: 3.16 µM [inhibitor, full curve, poor fit] | 
26 | OC(CNCc1ccncc1)c1ccccc1 (stereo unspecified) | inactive | 
27 | CCC(C(=O)Nc1ccc(C(C)=O)cc1)n1c(C)c2cnn(-c3ccccc3)c(=O)c2c1C (stereo unspecified) | inactive | 
28 | CC1CN(C(=O)c2ccc(-c3ccccc3Cl)o2)CC(C)O1 (stereo unspecified) | inconclusive: 35.5 µM [inhibitor, partial curve, poor fit] | 
29 | CCN1/C(=C\c2ccc3cc(C)ccc3[n+]2CC)Sc2cc(C)c(C)cc21 | active: 20 µM | 
30 | COc1ccccc1N1CCN(C(CNC(=O)C(=O)NCCc2ccccc2)c2cccnc2)CC1 (stereo unspecified) | active: 5.62 µM | 
31 | CN1CC=C2C(C#N)=C(N)C(C#N)(C#N)[C@H](c3ccoc3)[C@H]2C1 | active: 39.8 µM | 
32 | CNC(=O)COc1ccc(Nc2nnc(-c3ccc(C)c(S(=O)(=O)NC(C)(C)C)c3)c3ccccc23)cc1 | inconclusive: 11.2 µM [inhibitor, partial curve, poor fit] | 
33 | O=C(O)c1ccc(/C=N/Nc2ncc(C(F)(F)F)cc2Cl)cc1 | active: 31.6 µM | 
34 | CCOc1cc(C2c3c(-c4ccccc4O)n[nH]c3C(=O)N2CCc2ccccc2)ccc1O (stereo unspecified) | inactive | 
35 | COc1ccc(-c2cc(C(F)(F)F)nc(SCCC(=O)Nc3c(C)cccc3C)n2)cc1 | inactive | 
36 | COc1cccc(-c2ccc3c(N)c(C(=O)Nc4ccc(C)c(F)c4)sc3n2)c1 | inconclusive: 6.31 µM [inhibitor, partial curve, poor fit] | 
37 | CCc1ccc(C2c3c(oc4ccc(C)cc4c3=O)C(=O)N2c2nc(C)c(C)s2)cc1 (stereo unspecified) | inactive | 
38 | CC(OC(=O)CNC(=O)c1ccco1)C(=O)N(C)c1ccccc1 (stereo unspecified) | inactive | 
39 | COc1ccccc1NC(=S)NNC(=O)c1ccc(Cl)cc1Cl | active: 20 µM | 
40 | Cc1ccc(-n2c(=O)c3oc4ccccc4c3n(CC(=O)Nc3ccccc3)c2=O)cc1C | inactive | 
41 | COc1ccc(CNC(=O)C2CCN(C(=O)c3ccco3)CC2)cc1 | inactive | 
42 | CCOC(=O)CNC(=O)c1ccc(Cl)s1 | inconclusive: 44.7 µM [inhibitor, partial curve, poor fit] | 
43 | Cc1cc(NC(=O)c2sc(Nc3cccc(C(F)(F)F)c3)nc2N)no1 | inconclusive: 50.1 µM [inhibitor, partial curve, poor fit] | 
44 | CC(C)CNC(=O)C1=CC(c2ccc3c(c2)OCO3)=NS(=O)(=O)N1C | inconclusive: 39.8 µM [inhibitor, partial curve, poor fit] | 
45 | CCc1ccccc1NC(=O)Cc1c(C(=O)O)[nH]c2ccc(Cl)cc12 | inactive | 
46 | Cc1ccc(Cn2c(CNC(=O)c3ccccc3Br)nc3cccnc32)cc1 | inactive | 
47 | Cc1ccc(N=N/C(=C\O)C(=O)c2ccc(Cl)cc2)cc1 | active: 25.1 µM | 
48 | Cn1c(=O)c2c(nc(N/N=C/c3cccs3)n2C)n(C)c1=O | inconclusive: 50.1 µM [inhibitor, partial curve] | 

Row | SMILES | Potency | activity, negative = inhibition
49 | CC(C)n1c(O)c(N=Nc2ccc(Cl)c(C(=O)O)c2)c2ccccc21 |  | inconclusive: -70.3% [inhibitor]
50 | O=C(Nc1cccc(S(=O)(=O)N2CCOCC2)c1)c1cccc(S(=O)(=O)N2CCCCC2)c1 | inconclusive: 50.1 µM [inhibitor, partial curve, poor fit] | 
51 | Cc1cccc(-n2c(CNC(=O)c3cccc([N+](=O)[O-])c3C)n[nH]c2=S)c1 | active: 11.2 µM | 
52 | Cc1ccc2nc(Cl)c(/C=N/NC(=O)c3ccccc3O)cc2c1 | inconclusive: 89.1 µM [inhibitor, single point] | 
53 | COc1ccc(CCC(=O)Nc2sccc2C#N)cc1 | inconclusive: 50.1 µM [inhibitor, partial curve, poor fit] | 
54 | Cc1cc(C(=O)OCC(=O)Nc2cccc(S(=O)(=O)N3CCOCC3)c2)c(C)o1 | inactive | 
55 | Cc1ccc(S(=O)(=O)N2CCCCC2)cc1C(=O)NCc1ccccn1 | inactive | 
56 | COc1ccc(C(=O)NC(=S)Nc2nnn(C)n2)cc1 | active: 3.55 µM | 
57 | O=c1c(O[C@@H]2O[C@H](CO)[C@@H](O)[C@H](O)[C@H]2O)c(-c2ccc(O)c(O)c2)oc2cc(O)cc(O)c12 | active: 8.91 µM | 
58 | CCOC(=O)c1c(NC(=S)NC(C)=O)sc(C)c1C | inconclusive: 89.1 µM [inhibitor, single point] | 
59 | CCOc1ccc(CN2CCN(Cc3ccon3)CC2CCO)cc1 (stereo unspecified) | inactive | 
60 | Oc1c(C(c2ccccc2)N2CCN(c3ccccc3)CC2)sc2nc(-c3ccco3)nn12 (stereo unspecified) | inconclusive: 2 µM [inhibitor, partial curve, poor fit] | 
61 | COc1ccc(-c2ccc(=O)n(CC(=O)NCc3ccco3)n2)cc1 | inconclusive: 79.4 µM [inhibitor, partial curve, poor fit] | 
62 | CCc1cc(=O)oc2cc(OCC(=O)N3CCC(C(N)=O)CC3)ccc12 | inconclusive: 35.5 µM [inhibitor, single point] | 
63 | S=C1NC(c2cccs2)=CC(c2ccc(Br)cc2)N1 (stereo unspecified) | active: 15.8 µM | 
64 | CCOC(=O)N1CCC(NC(=O)C2CCN(S(=O)(=O)c3cccc4cccnc34)CC2)CC1 | inconclusive: 70.8 µM [inhibitor, partial curve, poor fit] | 
65 | CCN(CC)C(=O)NC(c1ccc(C)c(F)c1)C(Cl)(Cl)Cl (stereo unspecified) | inactive | 
66 | CCCC(=O)N1CCN(c2ccc(NC(=S)NC(=O)c3cccc(C)c3)cc2)CC1 | inconclusive: 3.55 µM [inhibitor, single point] | 
67 | CC(C)(C)NC(=O)Nc1ccccc1C(N)=O | inconclusive: 3.55 µM [inhibitor, partial curve, poor fit] | 
68 | CC(C)(C)C1C/C(=C/c2ccccn2)C(=O)/C(=C/c2ccccn2)C1 (stereo unspecified) | inconclusive: 39.8 µM [inhibitor, single point] | 
69 | Cc1cccc(C(=O)NNC(=O)C(=O)NC(C)(C)C)c1 | active: 28.2 µM | 
70 | CCn1nnnc1NC(=O)c1cc(OC)c(OC)c(OC)c1 | inactive | 
71 | Cc1cc(/C=N/NC(N)=S)c(C)n1-c1ccc(Cl)c(Cl)c1 | inconclusive: 31.6 µM [inhibitor, single point] | 
